Results are given in words; binding and its absence hold for the method and conditions named. For part of these data: Binding seen in cells or lysates may run through a third protein. Some entries that bind do so weakly or less than the wild type. Each block holds one molecule with its values, some of them ahead of it.
Key:
[1] = target: T1, mouse filensin (mouse (endogenous in lens)) (UniProt A2AMT1); test: co-IP; wild-type mouse lens extract in modified RIPA buffer (150 mM NaCl, 1% NP-40, 0.5% sodium deoxycholate, 2 mM EGTA, 50 mM Tris-HCl, pH 7.4); rabbit antiserum to filensin on Protein A MicroBeads, 2 h at 4°C; western blot
T1 sequence: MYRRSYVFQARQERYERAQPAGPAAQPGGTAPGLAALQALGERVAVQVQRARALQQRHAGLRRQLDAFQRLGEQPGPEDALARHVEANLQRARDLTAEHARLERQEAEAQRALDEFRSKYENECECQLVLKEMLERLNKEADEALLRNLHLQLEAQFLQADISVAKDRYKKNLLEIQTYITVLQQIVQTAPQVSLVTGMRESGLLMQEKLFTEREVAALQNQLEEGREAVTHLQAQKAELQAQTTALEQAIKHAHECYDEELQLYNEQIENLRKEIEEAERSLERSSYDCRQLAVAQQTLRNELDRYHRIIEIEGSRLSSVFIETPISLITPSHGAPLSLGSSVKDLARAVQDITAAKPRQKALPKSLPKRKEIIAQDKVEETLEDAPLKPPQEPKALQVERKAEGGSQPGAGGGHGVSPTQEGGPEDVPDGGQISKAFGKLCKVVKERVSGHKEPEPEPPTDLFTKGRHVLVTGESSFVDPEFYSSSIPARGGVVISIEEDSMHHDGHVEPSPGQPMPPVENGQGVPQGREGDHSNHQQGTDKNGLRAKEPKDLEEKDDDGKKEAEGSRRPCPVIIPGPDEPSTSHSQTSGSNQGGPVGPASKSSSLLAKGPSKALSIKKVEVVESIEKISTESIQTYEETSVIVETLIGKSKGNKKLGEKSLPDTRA

The chains behind the UniProt entries cited, without tags or fusion partners.
UniProt Q62261: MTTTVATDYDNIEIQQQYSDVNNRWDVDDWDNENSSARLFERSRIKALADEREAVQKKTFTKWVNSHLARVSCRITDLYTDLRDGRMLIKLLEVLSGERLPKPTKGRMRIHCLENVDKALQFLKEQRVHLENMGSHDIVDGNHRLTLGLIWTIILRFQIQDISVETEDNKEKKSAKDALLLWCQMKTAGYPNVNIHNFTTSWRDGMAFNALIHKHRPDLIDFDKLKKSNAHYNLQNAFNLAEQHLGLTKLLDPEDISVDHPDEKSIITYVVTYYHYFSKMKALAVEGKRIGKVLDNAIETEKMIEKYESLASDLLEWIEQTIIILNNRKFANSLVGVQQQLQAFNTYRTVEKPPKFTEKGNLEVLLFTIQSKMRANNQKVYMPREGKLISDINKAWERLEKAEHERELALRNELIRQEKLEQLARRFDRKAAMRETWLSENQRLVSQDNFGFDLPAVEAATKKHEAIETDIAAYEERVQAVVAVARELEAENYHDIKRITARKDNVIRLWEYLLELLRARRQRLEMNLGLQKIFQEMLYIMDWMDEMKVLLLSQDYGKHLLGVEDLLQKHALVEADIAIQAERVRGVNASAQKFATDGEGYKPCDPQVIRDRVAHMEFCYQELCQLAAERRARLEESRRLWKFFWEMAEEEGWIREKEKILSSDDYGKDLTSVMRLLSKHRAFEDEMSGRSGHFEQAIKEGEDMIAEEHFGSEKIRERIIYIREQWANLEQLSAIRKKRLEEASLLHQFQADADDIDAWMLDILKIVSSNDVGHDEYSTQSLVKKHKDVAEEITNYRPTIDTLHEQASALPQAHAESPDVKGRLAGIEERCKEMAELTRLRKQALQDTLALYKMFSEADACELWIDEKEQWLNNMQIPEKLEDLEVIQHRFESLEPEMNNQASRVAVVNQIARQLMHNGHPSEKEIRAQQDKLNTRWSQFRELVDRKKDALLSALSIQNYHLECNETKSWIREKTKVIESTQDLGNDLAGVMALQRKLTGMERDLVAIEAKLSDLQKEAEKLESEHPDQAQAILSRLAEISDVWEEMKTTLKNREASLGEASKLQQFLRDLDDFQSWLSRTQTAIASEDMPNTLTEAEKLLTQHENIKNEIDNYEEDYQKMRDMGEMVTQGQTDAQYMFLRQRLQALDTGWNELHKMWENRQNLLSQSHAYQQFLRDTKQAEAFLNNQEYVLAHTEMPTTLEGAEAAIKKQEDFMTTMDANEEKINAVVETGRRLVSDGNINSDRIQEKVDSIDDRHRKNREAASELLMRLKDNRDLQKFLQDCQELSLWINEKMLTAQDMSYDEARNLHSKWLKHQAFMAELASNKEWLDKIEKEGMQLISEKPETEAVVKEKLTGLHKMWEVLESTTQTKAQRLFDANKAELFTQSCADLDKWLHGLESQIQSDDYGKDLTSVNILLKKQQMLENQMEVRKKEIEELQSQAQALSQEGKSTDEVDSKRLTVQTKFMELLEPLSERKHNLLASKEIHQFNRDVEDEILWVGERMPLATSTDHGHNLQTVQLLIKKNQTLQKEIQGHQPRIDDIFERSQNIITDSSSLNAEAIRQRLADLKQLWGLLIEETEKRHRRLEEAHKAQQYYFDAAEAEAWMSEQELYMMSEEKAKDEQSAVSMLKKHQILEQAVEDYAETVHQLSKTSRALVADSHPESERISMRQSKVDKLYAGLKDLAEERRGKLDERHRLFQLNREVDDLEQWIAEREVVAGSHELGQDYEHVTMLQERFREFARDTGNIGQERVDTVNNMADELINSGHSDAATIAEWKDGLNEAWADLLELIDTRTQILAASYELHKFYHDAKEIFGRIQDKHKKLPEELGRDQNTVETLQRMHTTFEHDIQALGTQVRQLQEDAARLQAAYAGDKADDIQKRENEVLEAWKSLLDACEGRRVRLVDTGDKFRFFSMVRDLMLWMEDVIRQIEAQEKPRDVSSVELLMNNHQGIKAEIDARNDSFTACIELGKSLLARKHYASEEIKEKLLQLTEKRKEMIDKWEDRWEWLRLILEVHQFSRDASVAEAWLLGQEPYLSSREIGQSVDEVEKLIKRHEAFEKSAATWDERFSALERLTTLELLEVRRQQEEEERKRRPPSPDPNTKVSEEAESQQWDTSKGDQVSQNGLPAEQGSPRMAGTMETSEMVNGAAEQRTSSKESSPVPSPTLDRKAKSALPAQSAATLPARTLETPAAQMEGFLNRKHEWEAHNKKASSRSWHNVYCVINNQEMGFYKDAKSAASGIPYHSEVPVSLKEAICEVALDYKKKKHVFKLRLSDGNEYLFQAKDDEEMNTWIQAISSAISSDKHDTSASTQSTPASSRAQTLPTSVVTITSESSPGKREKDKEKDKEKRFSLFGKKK

[2] = target: T2, mouse tropomodulin 1 (Tmod1), endogenous (mouse (endogenous in lens)) (UniProt P49813); test: co-IP; wild-type mouse lens extract in modified RIPA buffer (150 mM NaCl, 1% NP-40, 0.5% sodium deoxycholate, 2 mM EGTA, 50 mM Tris-HCl, pH 7.4); affinity-purified rabbit anti-Tmod1 on Protein A MicroBeads, 2 h at 4°C; western blot; preimmune IgG as control
T2 sequence: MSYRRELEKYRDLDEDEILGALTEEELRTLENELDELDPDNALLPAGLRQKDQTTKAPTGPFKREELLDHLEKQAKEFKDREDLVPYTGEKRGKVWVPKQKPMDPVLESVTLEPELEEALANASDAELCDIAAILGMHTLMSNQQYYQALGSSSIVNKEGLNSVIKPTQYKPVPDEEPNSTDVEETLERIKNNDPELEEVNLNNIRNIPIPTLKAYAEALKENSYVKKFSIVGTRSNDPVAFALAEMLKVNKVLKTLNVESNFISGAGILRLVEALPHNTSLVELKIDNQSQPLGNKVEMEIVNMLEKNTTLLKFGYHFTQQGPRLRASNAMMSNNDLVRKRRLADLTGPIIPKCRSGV

[3] = target: T3, mouse CP49 (phakinin) (mouse (endogenous in lens)) (UniProt Q6NVD9); test: far-Western, overlay or dot blot; mouse lens extracts (CP49+/+ and CP49-/-) separated by SDS-PAGE and transferred to nitrocellulose; blots incubated overnight at 4°C with 2 µg/ml purified recombinant Tmod in OverWash buffer (80 mM KCl, 2 mM MgCl2, 1 mM EGTA, 0.2% Triton X-100, 20 mM Hepes, pH 7.3) + 2% BSA; bound Tmod detected with antisera to Tmod1 or Tmod4; only the binder purified
T3 sequence: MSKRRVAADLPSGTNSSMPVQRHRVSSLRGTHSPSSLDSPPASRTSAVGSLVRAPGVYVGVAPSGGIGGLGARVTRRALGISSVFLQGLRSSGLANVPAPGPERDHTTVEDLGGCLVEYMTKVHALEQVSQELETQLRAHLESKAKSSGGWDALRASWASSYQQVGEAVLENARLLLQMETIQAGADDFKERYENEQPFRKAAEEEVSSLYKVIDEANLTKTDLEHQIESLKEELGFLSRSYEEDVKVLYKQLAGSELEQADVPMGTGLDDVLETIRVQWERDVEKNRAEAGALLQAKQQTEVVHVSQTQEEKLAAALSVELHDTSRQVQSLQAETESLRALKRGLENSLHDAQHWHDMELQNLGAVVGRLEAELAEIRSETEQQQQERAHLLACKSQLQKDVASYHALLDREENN

[4] = target: T1, mouse filensin (mouse (endogenous in lens)); test: as above
[5] = target: T4, mouse tropomodulin 1 (Tmod1), endogenous (mouse (endogenous in lens)), P49813; test: co-IP; wild-type mouse lens extract in modified RIPA buffer (150 mM NaCl, 1% NP-40, 0.5% sodium deoxycholate, 2 mM EGTA, 50 mM Tris-HCl, pH 7.4); affinity-purified rabbit anti-Tmod1 on Protein A MicroBeads, 2 h at 4°C; western blot; preimmune IgG as control; details: remark: other sources report otherwise
T4 chain: T2 sequence

binding [1]: binds
binding [2]: binds
Molecule: β2-spectrin (mouse lens) (from UniProt Q62261 1-2363)

binding [1]: binds
B1: mouse CP49 (phakinin) (protein, UniProt Q6NVD9 1-416)
chain: T3 sequence

binding [3]: no binding (tested: 2 µg/ml)
binding [4]: no binding (tested: 2 µg/ml)
B2: purified recombinant human Tmod1 (tropomodulin 1) (protein, UniProt P28289 1-359)
chain: MSYRRELEKYRDLDEDEILGALTEEELRTLENELDELDPDNALLPAGLRQKDQTTKAPTGPFKREELLDHLEKQAKEFKDREDLVPYTGEKRGKVWVPKQKPLDPVLESVTLEPELEEALANASDAELCDIAAILGMHTLMSNQQYYQALSSSSIMNKEGLNSVIKPTQYKPVPDEEPNSTDVEETLERIKNNDPKLEEVNLNNIRNIPIPTLKAYAEALKENSYVKKFSIVGTRSNDPVAYALAEMLKENKVLKTLNVESNFISGAGILRLVEALPYNTSLVEMKIDNQSQPLGNKVEMEIVSMLEKNATLLKFGYHFTQQGPRLRASNAMMNNNDLVRKRRLADLTGPIIPKCRSGV

binding [5]: no binding
B3: N-cadherin (mouse lens), P15116 160-906 (protein)
chain: DWVIPPINLPENSRGPFPQELVRIRSDRDKNLSLRYSVTGPGADQPPTGIFIINPISGQLSVTKPLDRELIARFHLRAHAVDINGNQVENPIDIVINVIDMNDNRPEFLHQVWNGSVPEGSKPGTYVMTVTAIDADDPNALNGMLRYRILSQAPSTPSPNMFTINNETGDIITVAAGLDREKVQQYTLIIQATDMEGNPTYGLSNTATAVITVTDVNDNPPEFTAMTFYGEVPENRVDVIVANLTVTDKDQPHTPAWNAAYRISGGDPTGRFAILTDPNSNDGLVTVVKPIDFETNRMFVLTVAAENQVPLAKGIQHPPQSTATVSVTVIDVNENPYFAPNPKIIRQEEGLHAGTMLTTLTAQDPDRYMQQNIRYTKLSDPANWLKIDPVNGQITTIAVLDRESPNVKNNIYNATFLASDNGIPPMSGTGTLQIYLLDINDNAPQVLPQEAETCETPEPNSINITALDYDIDPNAGPFAFDLPLSPVTIKRNWTINRLNGDFAQLNLKIKFLEAGIYEVPIIITDSGNPPKSNISILRVKVCQCDSNGDCTDVDRIVGAGLGTGAIIAILLCIIILLILVLMFVVWMKRRDKERQAKQLLIDPEDDVRDNILKYDEEGGGEEDQDYDLSQLQQPDTVEPDAIKPVGIRRLDERPIHAEPQYPVRSAAPHPGDIGDFINEGLKAADNDPTAPPYDSLLVFDYEGSGSTAGSLSSLNSSSSGGDQDYDYLNDWGPRFKKLADMYGGGDD
